Hit rate of the full screen: of about 310,000 compounds, about 14,000 (4.5%) showed an effect of 50% or more. Effects have a minus sign here. This is one part of the list.
Target: human ether-à-go-go-related gene (hERG) potassium channel (human, UniProt Q12809)
Assay: primary screen, population patch clamp on CHO cells stably expressing hERG
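Also: peak tail current of the secondary pulse compared with the same well before compound.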

Sequence of human ether-à-go-go-related gene (hERG) potassium channel (Q12809 whole entry, looked up): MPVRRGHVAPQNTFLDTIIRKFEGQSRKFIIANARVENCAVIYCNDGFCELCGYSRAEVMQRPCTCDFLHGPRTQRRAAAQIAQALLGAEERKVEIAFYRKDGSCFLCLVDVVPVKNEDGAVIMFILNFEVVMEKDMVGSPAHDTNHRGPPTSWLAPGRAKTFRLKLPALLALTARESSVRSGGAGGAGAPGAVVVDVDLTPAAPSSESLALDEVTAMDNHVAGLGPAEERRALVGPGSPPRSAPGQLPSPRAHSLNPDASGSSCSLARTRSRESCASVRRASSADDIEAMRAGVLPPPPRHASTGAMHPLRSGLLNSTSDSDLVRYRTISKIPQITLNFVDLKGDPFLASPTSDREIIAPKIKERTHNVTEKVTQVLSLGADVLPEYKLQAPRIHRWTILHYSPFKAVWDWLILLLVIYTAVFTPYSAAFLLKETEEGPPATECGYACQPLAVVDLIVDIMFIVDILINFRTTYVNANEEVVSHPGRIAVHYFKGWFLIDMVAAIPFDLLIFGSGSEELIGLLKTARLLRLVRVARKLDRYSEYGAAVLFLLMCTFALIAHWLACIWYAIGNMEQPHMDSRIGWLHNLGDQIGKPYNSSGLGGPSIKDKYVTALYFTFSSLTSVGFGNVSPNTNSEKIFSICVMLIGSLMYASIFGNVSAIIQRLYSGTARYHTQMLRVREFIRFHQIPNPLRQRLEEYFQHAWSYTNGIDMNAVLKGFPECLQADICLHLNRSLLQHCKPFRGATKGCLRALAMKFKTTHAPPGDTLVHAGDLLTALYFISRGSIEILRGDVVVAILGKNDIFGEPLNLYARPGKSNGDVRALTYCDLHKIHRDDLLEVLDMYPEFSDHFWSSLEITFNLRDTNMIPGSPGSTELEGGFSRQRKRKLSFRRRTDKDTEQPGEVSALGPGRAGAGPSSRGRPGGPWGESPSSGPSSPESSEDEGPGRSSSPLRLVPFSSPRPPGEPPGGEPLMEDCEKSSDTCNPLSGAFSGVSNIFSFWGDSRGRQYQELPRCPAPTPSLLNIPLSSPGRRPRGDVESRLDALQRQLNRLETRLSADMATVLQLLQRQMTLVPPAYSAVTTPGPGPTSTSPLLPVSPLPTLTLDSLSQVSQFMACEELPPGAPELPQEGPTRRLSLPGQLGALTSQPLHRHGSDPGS

Structure (SMILES)	hERG current change (%, negative = inhibition) at 10uM
c1ccc2nc(N3CCOCC3)cnc2c1	-1.44%
Cc1cc(-c2ccn[nH]2)c(C)s1	5.25%
CC(C)(C)c1cnnn1-c1ccc(/C=N/Nc2ccc([N+](=O)[O-])cc2)cc1	-1.96%
CCOC(=O)N1CCN(Cc2cc(=O)oc3cc4c(cc23)CCC4)CC1	-26.9%
CCOC(=O)N1CCN(C2OC(=O)c3ccccc32)CC1 (centres unmarked)	8.07%
COC(=O)c1cccc(C(=O)Nc2ccc(F)cc2)n1	-8.51%
O=C(CNC(=O)c1ccc(F)cc1)c1ccccc1	10.2%
CCOc1ccc(NC(=O)CCNS(=O)(=O)c2cccs2)cc1	-8.9%
COc1cc(Br)c(C(C)NC(=O)c2ccc(C)cc2)cc1OC (centres unmarked)	-17.1%
Nc1cc(=O)[nH]c(SCC(=O)Nc2nnc(-c3ccccc3)s2)n1	21.6%
CC(=O)Nc1ccc(S(=O)(=O)N2CCN(C(=O)c3ncoc3-c3ccccc3C)CC2)cc1	31.4%
O=S(=O)(Nc1ccc2c(c1)nc1n2CCN(Cc2ccccc2)C1)c1ccccc1	-40.1%
N#CCn1c(Cc2ccccc2)nc2ccccc2c1=O	7.34%
O=C(Cn1c(=O)oc2ccccc21)N1CCN(S(=O)(=O)c2ccccc2)CC1	-24.1%
Cc1ccc(S(=O)(=O)N2CCN(C(=O)c3ccco3)CC2)c(C)c1	-7.22%
C1CCN(c2c3c(nc4nnnn24)CCCC3)CC1	-2.33%
c1coc(-c2nc3ccccc3nc2-c2ccco2)c1	-4.79%
CCC(Oc1ccccc1)C(=O)Nc1nnc(C)s1 (centres unmarked)	-3.23%
COc1cccc(S(=O)(=O)Nc2cccc(C(=O)N3CCOCC3)c2)c1	12.3%
O=C(NNC(=O)C1CC=CCC1)c1ccccc1Cl (centres unmarked)	16.5%
O=C(Nc1ccccc1F)c1ccc(CN2CCN(c3ccccc3)CC2)cc1	-70.7%
O=S(=O)(NCc1csc(-c2cccnc2)n1)c1ccc(Br)cc1	-1.17%
Cc1c(C(=O)O)sc2nc(C)n(C)c(=O)c12	3.62%

Structure (SMILES)	hERG current change (%, negative = inhibition) at 10uM
CCCCn1c(N)c(N(CC)C(=O)c2ccncc2)c(=O)[nH]c1=O	2.8%
CCc1ncc(C(O)c2cccc3ccccc23)n1C (centres unmarked)	0.159%
COc1cc(/C=C(\C#N)c2ccccn2)ccc1OCc1ccc(Cl)cc1	9.63%
COC(=O)c1cc2sc(Cl)cc2n1CC(=O)Nc1ccc(OC)c(OC)c1OC	-68.9%
COc1ccc(NC(=S)Nc2cccc(C(F)(F)F)c2)c(C)c1	8.41%
COc1cc(/C=C2\SC(=S)N(NC(=O)c3cccc(O)c3)C2=O)ccc1O	8.96%
CN(CC(=O)Nc1ccccc1C(F)(F)F)C(=O)COc1ncnc2ccccc12	1.42%
Cc1ccc(S(=O)(=O)N(CC(=O)NC2CCCCCC2)c2ccccc2F)cc1	4.92%
COc1cccc2cc(C(C)N(CCCN3CCOCC3)C(=S)Nc3cccc(C)c3C)oc12 (centres unmarked)	0.505%
COc1ccc(CN(C)C(=O)c2ccncc2)c(OC)c1	-2.49%
COc1ccc(NC(C)=O)cc1CNC(=O)CN1CCOCC1	19.1%
CCN(C(=O)CSc1nnc2nc(C)cc(C)n12)c1ccccc1	6.53%
COc1ccccc1/C=C/C(=O)c1ccc(Cl)cc1	-3.25%
CCC(Oc1ccccc1)C(=O)NCCCN1CCOCC1 (centres unmarked)	1.93%
COc1ccc(-c2c[n+]3c(n2-c2ccccc2)SCC3)cc1.[Br-]	-45.7%
CN(C)c1ccc(-c2nnc(-c3cccs3)o2)cc1	11.9%
CCCCn1c(N)c(N(CC)C(=O)CSc2nnnn2-c2cc(C)ccc2C)c(=O)[nH]c1=O	-3.92%
O=C(OCC(=O)C12CC3CC(CC(C3)C1)C2)c1ccc(O)cc1O	11.5%
Cc1ccccc1NC(=S)NC(=O)CCc1ccccc1	6.92%
CC(C)(CNC(=O)c1sc2cc(Cl)ccc2c1Cl)N1CCOCC1	-23%
O=C(O)/C=C/c1ccc(S(=O)(=O)N2CCN(CCN3C(=O)C4C5C=CC(C5)C4C3=O)CC2)cc1 (centres unmarked)	10.6%
O=C(CCNC(=O)c1ccccc1)Nc1cccnc1	26.3%
CCN(CC)CCN(C(=O)CCOc1ccccc1)c1nc2ccc(F)cc2s1.Cl	-8.61%

Structure (SMILES)	hERG current change (%, negative = inhibition) at 10uM
COc1ccc(S(=O)(=O)NCC(=O)N(CC(=O)NCC2CCCO2)c2c(C)cccc2C)cc1 (centres unmarked)	-8.06%
O=[N+]([O-])c1ccc(Nc2ccc(F)cc2)cc1	4.63%
Cc1ccc(S(=O)(=O)N2CCN(c3ccccn3)CC2)cc1	4.96%
CC(=O)OCCC(NS(=O)(=O)OCC(Cl)(Cl)Cl)c1ccccc1 (centres unmarked)	-2.65%
CC(=O)NC(=O)c1nnn(Cc2ccccc2)c1NC(C)=O	-10.5%
CC1Sc2ccc(S(=O)(=O)N3CCC(C(=O)NCc4ccccc4)CC3)cc2NC1=O (centres unmarked)	-7.45%
CN(C)c1cccc(C(=O)NCCCSc2ccccc2)c1	4.72%
CC(=O)OCc1nc2sc(C)c(C)c2c(=O)[nH]1	1.77%
Nc1cccnc1-n1nc(C(F)(F)F)cc1C(F)(F)F	8.5%
COc1cccc(-c2nc(CS(=O)(=O)c3ccccc3)no2)c1	-21.1%
Cc1ccc(SCC2(O)CCN(S(=O)(=O)c3ccc(Cl)cc3)CC2)cc1	-3.52%
CNC(=S)N1CCc2ccccc2C1	-6.86%
Cc1cc2nc(Cl)c(Cl)nc2cc1C	-2.57%
CCCc1c(C)nc(SCC(=O)C(C)(C)C)nc1OC(=O)N(C)C	-8.88%
CC(=O)N(c1ccc(N(C(C)=O)S(=O)(=O)c2cccs2)cc1)S(=O)(=O)c1cccs1	-21.9%
CC1(C(=O)NCCOc2ccccc2Cl)CC1(Cl)Cl (centres unmarked)	7.02%
COc1cc(NS(=O)(=O)c2ccc(N/C=C\C(=O)c3ccc(C)cc3)cc2)nc(OC)n1	10.2%
COc1ccc(C2CC(c3ccccc3)=NN2C(=O)CSc2nccc(=O)[nH]2)cc1 (centres unmarked)	-8.31%
Cc1cc(C(=O)Nc2ccc3c(c2)OCCO3)ccc1[N+](=O)[O-]	12%
COc1cc(/C=C/C(=O)O)ccc1OS(=O)(=O)c1cc(Br)ccc1C	-3.39%
C#CCOc1ccc(C2C(C#N)=C(N)Oc3cc(O)ccc32)cc1 (centres unmarked)	-2.71%
Cc1cc(C)cc(N(CC(=O)NCc2ccccc2)C(=O)CCC(=O)Nc2ccccn2)c1	25.6%
COc1cc(S(=O)(=O)Nc2c(C)cc(C)cc2C)ccc1Cl	-1.86%

Structure (SMILES)	hERG current change (%, negative = inhibition) at 10uM
CCOCCn1c(=NC(=O)CSCC(=O)N2CCOCC2)sc2cc(OC)ccc21	-14.4%
O=[N+]([O-])c1ccccc1S(=O)(=O)Oc1ccc(C(=S)N2CCOCC2)cc1	-75%
CN(C)C(=O)c1cn(-c2ccccc2)nc1-c1cccs1	14.9%
CC1Cc2ccccc2N1C1=CC(=O)CC(C)(C)C1 (centres unmarked)	-9.24%
O=c1cc(-c2ccc([N+](=O)[O-])cc2)c2cc3c(cc2[nH]1)OCCO3	-12%
Cc1ccc(N2CCN(/N=C/c3ccccc3[N+](=O)[O-])CC2)cc1	-0.0251%
Cl.OC(COCc1ccc2c(c1)OCO2)CN1CCN(Cc2ccccc2)CC1 (centres unmarked)	-33.1%
O=C1OCCC1Sc1nnc(-c2ccc(F)cc2)n1Cc1ccccc1 (centres unmarked)	-22.6%
Cc1sc(NC(=O)c2ccco2)c(C(=O)c2ccc(Cl)cc2)c1C	22.6%
O=C(COC(=O)c1c(F)cccc1F)Nc1ccc2[nH]c(=O)[nH]c2c1	20.3%
COc1ccc(Nc2nc(C(=O)NCCCN3CCOCC3)cs2)cc1	-17.4%
CC(=O)Nc1ccc(S(=O)(=O)NCCC(=O)NCc2ccncc2)cc1	-45.7%
CCOC(=O)c1c(C2COc3ccccc3O2)csc1NC(=O)c1ccccc1 (centres unmarked)	33.1%
COc1cc(C(=O)N2CCN(C(=O)c3ccccc3)CC2)cc(OC)c1OC	8.49%
O=C(NCCCn1ccnc1)c1ccc(NS(=O)(=O)c2ccc(Cl)c(Cl)c2)cc1	18.8%
COc1ccc(NC(=O)CSc2ccc3nnc(-c4ccccn4)n3n2)cc1OC	-18.1%
CCc1ccc(CN(C(=O)COc2c(C)cccc2C)C2CCS(=O)(=O)C2)cc1 (centres unmarked)	-12.2%
Cc1onc(-c2ccccc2Cl)c1C(=O)OCc1nnc(-c2ccccc2)o1	-16.7%
COc1ccc(-n2c(SCC(=O)Nc3ccccc3)nc3c(c2=O)SCC3)cc1	-18.7%
CC(=O)c1cccc(N(CC(=O)Nc2ccc(S(=O)(=O)N3CCCC3)cc2)S(C)(=O)=O)c1	-1.63%
